Assays:
[1] = test system: MDA-MB-468 breast xenografts; assay: MDA-MB-468 breast xenografts with anti-Notch ADCs; assay type: in vivo, female SCID Hairless Outbred (SHO) mice; conditions: vc6780 study, Dose 10 mg/kg Q4dx4 iv
Procedure: (§1) Humanized anti-Notch antibodies, hu28 and hu75, and rat-human chimeric anti-Notch antibodies, ch28 and ch75, were conjugated to various linker-payload combinations and tested in 37622A1 non-small cell lung cancer (NSCLC), HCC2429 lung cancer, MDA-MB-468 breast cancer and N87 gastric cancer xenograft models. For each model described below the first dose was given on Day 0. The tumors were measured at least once a week and their volume was calculated with the formula: tumor volume (mm^3)=0.5×(tumor width^2)(tumor length). The mean tumor volumes (±S.E.M.) for each treatment group were calculated having a maximum of 10 animals and a minimum of 6 animals to be included.
Similar in vivo experiments were performed with the MDA-MB-468 breast cancer cell line as described above. […] To generate xenografts, female SCID Hairless Outbred (SHO) mice were orthotopically implanted with 10×10^6 MDA-MB-468 cells containing 50% Matrigel (BD Biosciences) in the mammary fat pad. When the tumors reached a volume of 250 to 450 mm^3, the tumors were staged to ensure uniformity of the tumor mass among various treatment groups. The MDA-MB-468 breast model was dosed intraveneously Q4dx4 with PBS vehicle, humanized anti-Notch ADCs and control huNeg-8.8 ADCs at the doses provided in Tables 14 and 15.

HCC2429 lung xenografts = HCC2429 lung xenografts with anti-Notch ADCs; assay type: in vivo, nude (Nu/Nu) female mice
Procedure: as §1
Similar in vivo experiments were performed with the HCC2429 lung cancer cell line as described above. […] When the tumors reached a volume of 200 to 400 mm^3, the tumors were staged to ensure uniformity of the tumor mass among various treatment groups. The HCC2429 lung model was dosed intraveneously Q4dx4 with PBS vehicle, humanized anti-Notch ADCs and control huNeg-8.8 ADCs at the doses provided in Tables 12 and 13.

B1: hu28-vc6780 (conjugate)
heavy: EVQLVESGGGLVQPGGSLRLSCAASGFTFRDYGMTWVRQAPGKGLEWVAYISSGSNYIYYAEAVKGRFTISRDNAKNSLYLQMNSLRAEDTAVYYCARRGPFVLDAWGQGTLVTVSS[human IgG1 constant region left out]
light: DIQMTQSPSSLSASVGDRVTITCKASQSINRYLHWYQQKPGKAPKLLIYNANGLQTGVPSRFSGSGSGTDFTLTISSLQPEDFATYYCLQHNTWPDTFGGGTKVEIKRTVAAPSVFIFPPSDEQLKSGTASVVCLLNNFYPREAKVQWKVDNALQSGNSQESVTEQDSKDSTYSLSSTLTLSKADYEKHKVYACEVTHQGLSSPVTKSFNRGEC
tumor volume (mm^3 ± SEM) ([1]; DAY 46): 0 ± 0 mm^3
tumor volume (mm^3 ± SEM) ([1]; DAY 49): 0 ± 0 mm^3
tumor volume (mm^3 ± SEM) ([1]; DAY 53): 0 ± 0 mm^3
tumor volume (mm^3 ± SEM) ([1]; DAY 56): 0 ± 0 mm^3
tumor volume (mm^3 ± SEM) ([1]; DAY 60): 0 ± 0 mm^3
tumor volume (mm^3 ± SEM) ([1]; DAY 63): 0 ± 0 mm^3
tumor volume (mm^3 ± SEM) (HCC2429 lung xenografts; 10 mg/kg Q4dx4, DAY 1): 369 ± 31 mm^3
tumor volume (mm^3 ± SEM) (HCC2429 lung xenografts; 10 mg/kg Q4dx4, DAY 3): 318 ± 31 mm^3
tumor volume (mm^3 ± SEM) (HCC2429 lung xenografts; 10 mg/kg Q4dx4, DAY 5): 228 ± 28 mm^3
tumor volume (mm^3 ± SEM) (HCC2429 lung xenografts; 10 mg/kg Q4dx4, DAY 7): 172 ± 22 mm^3
tumor volume (mm^3 ± SEM) (HCC2429 lung xenografts; 10 mg/kg Q4dx4, DAY 10): 143 ± 22 mm^3
tumor volume (mm^3 ± SEM) (HCC2429 lung xenografts; 10 mg/kg Q4dx4, DAY 12): 134 ± 20 mm^3
tumor volume (mm^3 ± SEM) (HCC2429 lung xenografts; 10 mg/kg Q4dx4, DAY 14): 115 ± 16 mm^3
tumor volume (mm^3 ± SEM) (HCC2429 lung xenografts; 10 mg/kg Q4dx4, DAY 17): 127 ± 18 mm^3
tumor volume (mm^3 ± SEM) (HCC2429 lung xenografts; 10 mg/kg Q4dx4, DAY 20): 149 ± 27 mm^3
tumor volume (mm^3 ± SEM) (HCC2429 lung xenografts; 10 mg/kg Q4dx4, DAY 24): 206 ± 60 mm^3
tumor volume (mm^3 ± SEM) (HCC2429 lung xenografts; 10 mg/kg Q4dx4, DAY 27): 290 ± 100 mm^3
tumor volume (mm^3 ± SEM) (HCC2429 lung xenografts; 10 mg/kg Q4dx4, DAY 31): 378 ± 150 mm^3
tumor volume (mm^3 ± SEM) (HCC2429 lung xenografts; 10 mg/kg Q4dx4, DAY 34): 551 ± 244 mm^3
tumor volume (mm^3 ± SEM) (HCC2429 lung xenografts; 10 mg/kg Q4dx4, DAY 38): 718 ± 332 mm^3
tumor volume (mm^3 ± SEM) (HCC2429 lung xenografts; 10 mg/kg Q4dx4, DAY 42): 1011 ± 504 mm^3
tumor volume (mm^3 ± SEM) (HCC2429 lung xenografts; 10 mg/kg Q4dx4, DAY −1): 244 ± 22 mm^3
effect on growth of HCC2429 lung xenografts (in words) (HCC2429 lung xenografts; humanized ADCs, Q4dx4, doses of Tables 12 and 13): inhibited growth of HCC2429 lung xenografts in a dose-dependent manner
tumor volume (mm^3 ± SEM) (HCC2429 lung xenografts; vc6780 study, 1 mg/kg Q4dx4, DAY 1): 400 ± 66 mm^3
tumor volume (mm^3 ± SEM) (HCC2429 lung xenografts; vc6780 study, 1 mg/kg Q4dx4, DAY 3): 579 ± 113 mm^3
tumor volume (mm^3 ± SEM) (HCC2429 lung xenografts; vc6780 study, 1 mg/kg Q4dx4, DAY 5): 826 ± 191 mm^3
tumor volume (mm^3 ± SEM) (HCC2429 lung xenografts; vc6780 study, 1 mg/kg Q4dx4, DAY 7): 1023 ± 259 mm^3
tumor volume (mm^3 ± SEM) (HCC2429 lung xenografts; vc6780 study, 1 mg/kg Q4dx4, DAY 10): 1439 ± 398 mm^3
tumor volume (mm^3 ± SEM) (HCC2429 lung xenografts; vc6780 study, 1 mg/kg Q4dx4, DAY 12): 1442 ± 487 mm^3
tumor volume (mm^3 ± SEM) (HCC2429 lung xenografts; vc6780 study, 1 mg/kg Q4dx4, DAY −1): 245 ± 27 mm^3
tumor volume (mm^3 ± SEM) (HCC2429 lung xenografts; vc6780 study, 3 mg/kg Q4dx4, DAY 1): 379 ± 45 mm^3
tumor volume (mm^3 ± SEM) (HCC2429 lung xenografts; vc6780 study, 3 mg/kg Q4dx4, DAY 3): 493 ± 65 mm^3
tumor volume (mm^3 ± SEM) (HCC2429 lung xenografts; vc6780 study, 3 mg/kg Q4dx4, DAY 5): 609 ± 82 mm^3
tumor volume (mm^3 ± SEM) (HCC2429 lung xenografts; vc6780 study, 3 mg/kg Q4dx4, DAY 7): 638 ± 86 mm^3
tumor volume (mm^3 ± SEM) (HCC2429 lung xenografts; vc6780 study, 3 mg/kg Q4dx4, DAY 10): 784 ± 115 mm^3
tumor volume (mm^3 ± SEM) (HCC2429 lung xenografts; vc6780 study, 3 mg/kg Q4dx4, DAY 12): 883 ± 132 mm^3
tumor volume (mm^3 ± SEM) (HCC2429 lung xenografts; vc6780 study, 3 mg/kg Q4dx4, DAY 14): 895 ± 175 mm^3
tumor volume (mm^3 ± SEM) (HCC2429 lung xenografts; vc6780 study, 3 mg/kg Q4dx4, DAY 17): 1105 ± 253 mm^3
tumor volume (mm^3 ± SEM) (HCC2429 lung xenografts; vc6780 study, 3 mg/kg Q4dx4, DAY 20): 1219 ± 311 mm^3
tumor volume (mm^3 ± SEM) (HCC2429 lung xenografts; vc6780 study, 3 mg/kg Q4dx4, DAY 24): 1618 ± 468 mm^3
tumor volume (mm^3 ± SEM) (HCC2429 lung xenografts; vc6780 study, 3 mg/kg Q4dx4, DAY −1): 245 ± 24 mm^3

Source: patent US8828401B2, “Cytotoxic peptides and antibody drug conjugates thereof” (Pfizer Inc., priority 2011, dated 2014)
